From patent publication US11149300B1, “Methods of treating gastrointestinal malignancies” (Cedars-Sinai Medical Center, priority 2018, dated 2021)
Where two headings read alike, the source gives them in different places.

How the values were obtained:
[1] = cited from earlier work
[2] = projection and simulation of human PK and QTc; conditions: anticipated dose 50 mg twice daily

## C[C@]1(c2nc3c(C(N)=O)cccc3[nH]2)CCCN1 [veliparib]
[1]; 100 mg/kg PO
  CNS effects: mild sedation-like effects
[1]; 300 mg/kg PO
  CNS effects: moderate to marked CNS effects
[2]
  predicted QTc prolongation in humans: less than 3 msec
